Experimental data reported in PubChem BioAssay AID1347417 (National Center for Advancing Translational Sciences (NCATS), 2020).
Where “and” joins values, the source holds several entries; their conditions need not be identical. Equal entries are not always repeated. The campaign covered roughly 120,000 compounds. About 5,300 (4.4%) were called active. Inconclusive results, whose numbers are uncertain, are shown with a selection of clear calls. Calls come from the whole dose curve; as a rule, active = well fitted inhibition curve with a large enough effect; inconclusive = small, poorly fitted or top-dose-only effect; inactive = no such curve, though single readings can be large or run the other way. A potency beside an inconclusive call is a rough fit, not a confirmed value.

Assay: qHTS Primary assay for Inhibitors of Plasmodium falciparum Dd2 growth in vitro; note: nearly all actives have a fitted effect of over 65% in size;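 for activity, negative = inhibition: plate controls were DMSO vehicle for no effect and reference drug for full effect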
Conditions: P. falciparum Dd2 growth, SYBR Green, 72 h; activity, negative = inhibition: at 28.9 µM (top of the series) unless noted; series mostly up to 28.9 µM
Procedure, shortened: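 Readout: SYBR Green fluorescence, 485 nm excitation, 535 nm emission, after ~16 h lysis at 37C. Before that, Dd2-infected red cells (2.5% hematocrit) grew 72 h with compound, 29 uM top final concentration.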
Potency is the fitted concentration of half-maximal effect; tags give direction and shape of the fitted curve.

For `O=C1NCCOCCCN(S(=O)(=O)c2ccccc2)[C@H]2CCC[C@@H]12`, which Potency is on record?
The Potency was “inactive”.

For `O=C1CCNCCCC(c2nc(-c3ccccc3)no2)CCN1` (stereo not given), which Potency is on record?
The Potency was inconclusive: 5.01 µM [inhibitor, partial curve, poor fit].

Which Potency does the source give for `Cc1ccc2nc3n(c2c1)[C@@H](CNCc1ccc2c(c1)OCO2)COC3` here?
The Potency was inconclusive: 11.2 µM [inhibitor, partial curve, poor fit].

Which Potency does the source give for `COc1ccc(CCN2Cc3cc(NC(=O)c4ccc(OC)cc4)ccc3OC(C)C2=O)cc1` (stereo not given) here?
The Potency was “inactive”.

For `O=C(CC1CCCN(c2cnn(CC3CC3)c(=O)c2)C1)N1CCN(c2ccccn2)CC1` (stereo not given), which Potency is on record?
The Potency was inconclusive: 1.58 µM [inhibitor, full curve].

With `COc1cccc(-c2ccnc(-c3nnc(C)n3Cc3ccccc3)c2)c1` as the compound, how does the Potency read?
Its Potency is inconclusive: 2.24 µM [inhibitor, partial curve].

Which Potency does the source give for `COCc1nc(C2CC(N)C2)cc(N(C)Cc2sccc2C)n1` (stereo not given) here?
The Potency was inconclusive: 8.91 µM [inhibitor, single point].

For `Cc1cccc(N2CCN(C(=O)C3CCN(c4ncnc5c4nc4n5CCCCC4)CC3)CC2C)c1` (stereo not given), which activity, negative = inhibition is on record?
Its activity, negative = inhibition is inconclusive: -130% [inhibitor] [at 5.79 µM].

With `COc1cccc(CNC(=O)Cn2c(-c3ccc(F)cc3)nc(C)c(CCO)c2=O)c1` as the compound, how does the Potency read?
Its Potency is inconclusive: 20 µM [inhibitor, single point].

With `Cn1nnnc1SCCCNCc1cccc(OCc2ccc(F)cc2)c1` as the compound, how does the Potency read?
The Potency was active: 5.62 µM.

For `O=C(NCc1cccnc1)C1CCc2nnc(-c3ccc(Cl)cc3Cl)n21` (stereo not given), which Potency is on record?
Its Potency is “inactive”.

For `Cn1cccc1CN1CCC2(CC1)Cc1ccccc1NC2=O`, which Potency is on record?
The Potency was inconclusive: 0.562 µM [inhibitor, full curve].

Which Potency does the source give for `COc1ccc(C2=NOC3(CCN(Cc4ccc(F)cc4)C3)C2)cc1` (stereo not given) here?
The Potency was active: 3.98 µM.

Which Potency does the source give for `COC(=O)N(C)Cc1ccc(-c2ccccc2)cc1` here?
The Potency was inconclusive: 12.6 µM [inhibitor, single point].

Which Potency does the source give for `CCc1nn(CC(=O)Nc2cccc(C(C)=O)c2)c(=O)c2cc3sccc3n12` here?
The Potency was inconclusive: 10 µM [inhibitor, partial curve, poor fit].

Which Potency does the source give for `O=C(c1ccc2ncccc2c1)N1CCC(N2C(=O)C(O)C23CCCCC3)CC1` (stereo not given) here?
The Potency was inconclusive: 12.6 µM [inhibitor, single point].

Which Potency does the source give for `COc1cccc(CC(=O)N[C@H](C)c2onc(-c3ccc(F)cc3)c2C(=O)O)c1` here?
Its Potency is “inactive”.

Which Potency does the source give for `CCc1noc([C@@H]2CC(F)(F)CN2C(=O)Cc2ccccc2F)n1` here?
The Potency was “inactive”.

With `O=C1OCC2(CCN(Cc3cccc(Cl)c3)C2)N1c1ccncc1` (stereo not given) as the compound, how does the Potency read?
Its Potency is inconclusive: 15.8 µM [inhibitor, single point].

Which Potency does the source give for `CC1(C(=O)NCc2cnccn2)CN(Cc2ccccc2)Cc2ccc(Nc3ccccc3)nc21` (stereo not given) here?
The Potency was inconclusive: 0.562 µM [inhibitor, full curve].

With `CC(=O)N1CC[C@H](c2nc3ccc(F)cc3[nH]2)C1` as the compound, how does the Potency read?
The Potency was “inactive”.

With `CCc1ccc(N2CC(c3noc(-c4ccc(OC)c(F)c4)n3)CC2=O)cc1` (stereo not given) as the compound, how does the Potency read?
Its Potency is “inactive”.

For `COc1ccc(C(=O)N2CCC(C(NC(=O)c3ccccc3C)C(=O)NC(C)C(C)C)CC2)cc1` (stereo not given), which Potency is on record?
The Potency was “inactive”.

With `CCN(CC)C(=O)CCc1c(C)nn(-c2ccccc2)c1Oc1ccccc1` as the compound, how does the Potency read?
Its Potency is active: 10 µM.

With `COCC1(CNC(=O)C2CCOCC2)C[C@@H](O)[C@@H](O)C1` (stereo not given in full) as the compound, how does the Potency read?
The Potency was “inactive”.

With `Cc1nncn1C1CCN(S(=O)(=O)c2cccs2)CC1` as the compound, how does the Potency read?
The Potency was “inactive”.

Which Potency does the source give for `COCCN1CCC(N2CCN(S(=O)(=O)Cc3ccccc3)CC2)C1=O` (stereo not given) here?
Its Potency is “inactive”.

With `O=C(CSCc1cnn(-c2ccccc2)c1-n1cccc1)NCc1cccc(Cl)c1` as the compound, how does the Potency read?
The Potency was inconclusive: 15.8 µM [inhibitor, partial curve, poor fit].

Which Potency does the source give for `CNc1ccnc(N2CCCC(CO)(Cc3ccc(F)cc3)C2)n1` (stereo not given) here?
The Potency was inconclusive: 2 µM [inhibitor, partial curve, poor fit].

Which Potency does the source give for `COc1cccc(CN2CCCC(O)(CN3CCC4(CC3)OCCO4)C2=O)c1` (stereo not given) here?
The Potency was “inactive”.

For `COc1cccc(OCC(=O)c2ccc3c(c2)N(CCCC(=O)NCc2ccccc2)C(=O)CO3)c1`, which Potency is on record?
The Potency was inconclusive: 0.501 µM [inhibitor, full curve, poor fit].

Which activity, negative = inhibition does the source give for `CCc1ccc(S(=O)(=O)N(C)CC2CCOC2)cc1` (stereo not given) here?
The activity, negative = inhibition was inactive: 75.5% [at 5.79 µM].

With `Cc1cccc(NC(=O)Cn2c(C)cc3nc4n(c(=O)c32)CCCCC4)c1C` as the compound, how does the Potency read?
Its Potency is inconclusive: 0.282 µM [inhibitor, full curve, poor fit].

Which Potency does the source give for `CCOC(=O)c1ccc(NC(=O)N2CCC3(CC2)SCC(=O)N3Cc2ccco2)cc1` here?
The Potency was inconclusive: 0.282 µM [inhibitor, full curve, poor fit].

For `COCCN1C(=O)CC[C@]2(C(=O)N3CCSCC3)CCCC[C@@H]12`, which Potency is on record?
The Potency was “inactive”.

For `Cc1ccc(NC(=O)Cn2c(-c3ccc(F)cc3)nc(C)c(CCO)c2=O)cc1`, which Potency is on record?
The Potency was “inactive”.

Which Potency does the source give for `COCCNC(=O)C1COC2(CCC(C)CC2)N1C(=O)c1cccc([N+](=O)[O-])c1` (stereo not given) here?
Its Potency is “inactive”.

Which Potency does the source give for `Cn1nccc1CN1CCC2(C1)C(=O)N(CCc1ccccc1)c1ccccc12` (stereo not given) here?
The Potency was inconclusive: 8.91 µM [inhibitor, single point] and inconclusive: 12.6 µM [inhibitor, single point].

With `Cc1c(-c2ccccc2)nc2c(Cl)cccc2c1C(=O)OCC(=O)c1ccc(F)cc1` as the compound, how does the Potency read?
Its Potency is inconclusive: 11.2 µM [inhibitor, single point].

For `CCOC(=O)CSc1nc2cc3c(cc2c(=O)n1Cc1ccc(C(=O)NCCc2ccc(OC)c(OC)c2)cc1)OCO3`, which Potency is on record?
The Potency was inconclusive: 11.2 µM [inhibitor, single point].

For `O=C(NCc1ccccc1)c1cc2ccc3cccnc3c2[nH]1`, which Potency is on record?
Its Potency is inconclusive: 12.6 µM [inhibitor, partial curve].

For `COc1ccc(CNC(=O)NC2CCc3n[nH]c(=O)n3CC2)cc1` (stereo not given), which Potency is on record?
The Potency was “inactive”.

For `Cc1[nH]ncc1CNC(=O)CCC[C@H]1NC[C@@H]2C[C@H]1CN(Cc1ccccc1)C2`, which Potency is on record?
The Potency was inconclusive: 12.6 µM [inhibitor, single point].

Which Potency does the source give for `CCc1ccc(-n2c(=O)c3c4c(sc3n(CC(=O)c3ccc(Br)cc3)c2=O)CCC4)cc1` here?
Its Potency is “inactive”.

For `COc1ccc(-c2ccc(C(=O)NCCCn3ccnc3C(C)C)cn2)cc1`, which Potency is on record?
Its Potency is “inactive”.
